Experimental findings from PMC4336329 (PLoS ONE, 2015) are described below.

In all, about 310,000 compounds went through this assay and about 14,000 (4.5%) showed an effect of 50% or more. The effect is printed as a negative number. The list shows a part of the results.
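Note: peak tail current of the secondary pulse compared with the same well before compound.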

For the assay, the target named is human ether-à-go-go-related gene (hERG) potassium channel (human, UniProt Q12809). Briefly: primary screen, population patch clamp on CHO cells stably expressing hERG.
human ether-à-go-go-related gene (hERG) potassium channel, sequence (Q12809 whole entry, looked up): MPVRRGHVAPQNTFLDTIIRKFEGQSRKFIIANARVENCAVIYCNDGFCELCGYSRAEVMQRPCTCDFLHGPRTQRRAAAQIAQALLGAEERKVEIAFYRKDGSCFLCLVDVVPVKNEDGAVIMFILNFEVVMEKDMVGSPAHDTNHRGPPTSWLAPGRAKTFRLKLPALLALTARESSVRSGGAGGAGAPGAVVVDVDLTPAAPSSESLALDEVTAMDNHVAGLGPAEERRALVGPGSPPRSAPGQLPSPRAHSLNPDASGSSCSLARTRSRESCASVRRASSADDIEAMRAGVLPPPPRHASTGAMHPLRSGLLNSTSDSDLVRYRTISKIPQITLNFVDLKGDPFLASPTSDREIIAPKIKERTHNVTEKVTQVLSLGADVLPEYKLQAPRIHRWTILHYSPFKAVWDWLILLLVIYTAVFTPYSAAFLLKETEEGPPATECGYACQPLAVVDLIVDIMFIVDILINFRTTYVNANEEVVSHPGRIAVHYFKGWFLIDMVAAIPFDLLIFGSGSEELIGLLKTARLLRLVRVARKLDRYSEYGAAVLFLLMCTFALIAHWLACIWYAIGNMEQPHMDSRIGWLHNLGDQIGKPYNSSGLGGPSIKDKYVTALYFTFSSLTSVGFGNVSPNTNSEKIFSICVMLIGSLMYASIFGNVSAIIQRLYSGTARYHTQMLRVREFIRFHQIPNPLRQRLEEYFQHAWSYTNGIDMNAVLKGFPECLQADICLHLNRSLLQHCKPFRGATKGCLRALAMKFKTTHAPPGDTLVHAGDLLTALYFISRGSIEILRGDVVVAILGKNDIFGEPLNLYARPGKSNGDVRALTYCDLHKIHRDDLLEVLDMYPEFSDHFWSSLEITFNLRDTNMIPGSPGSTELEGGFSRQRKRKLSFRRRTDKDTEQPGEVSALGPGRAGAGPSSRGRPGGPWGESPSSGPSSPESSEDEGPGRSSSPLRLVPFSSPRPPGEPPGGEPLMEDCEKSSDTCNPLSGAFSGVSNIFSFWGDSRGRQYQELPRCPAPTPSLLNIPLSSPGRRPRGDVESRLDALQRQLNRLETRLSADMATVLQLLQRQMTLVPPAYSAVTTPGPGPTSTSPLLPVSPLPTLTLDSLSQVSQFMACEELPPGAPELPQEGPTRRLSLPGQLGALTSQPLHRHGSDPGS
For `O=C(Nc1nc2c(Br)cc(Br)cc2c(=O)s1)c1ccco1`, the “hERG current change (%, negative = inhibition) at 10uM” value is reported as 7.2%.

On to `Cc1nnc(C)c2c(C)n(N)c(C)c12`, for which the “hERG current change (%, negative = inhibition) at 10uM” value is -13.4%.

Regarding `COc1ccccc1P(=O)(c1ccccc1)c1ccccc1NC(C)=O` (centres unmarked), the “hERG current change (%, negative = inhibition) at 10uM” value is recorded as 14.3%.

For `CCCCOP(=O)(c1ccc(N(C)C)cc1)C(Nc1ccccc1)c1ccccc1` (centres unmarked), the “hERG current change (%, negative = inhibition) at 10uM” value is -22.7%.

In the case of `O=C(Cc1cn(Cc2cccc(Cl)c2)c2ccccc12)N1CCCCCC1`, the “hERG current change (%, negative = inhibition) at 10uM” value was -4.89%.

On to `CCOC(=O)c1c(NC(=O)CCN2C(=O)c3ccccc3C2=O)sc(C(=O)OC(C)C)c1C`, for which the “hERG current change (%, negative = inhibition) at 10uM” value is given as -4.35%.

For the compound `O=[N+]([O-])c1ccc(N2CCCC2)c2ccncc12`, the “hERG current change (%, negative = inhibition) at 10uM” value is on record as -0.0743%.

On to `CCCCn1cnc2c(c(-c3ccccc3)c(-c3ccccc3)n2Cc2ccco2)c1=N`, for which the “hERG current change (%, negative = inhibition) at 10uM” value is -75.1%.

As to `COc1ccc(C(C)=O)c(OC(=O)c2ccco2)c1`, the “hERG current change (%, negative = inhibition) at 10uM” value was determined as 3.48%.

`O=C(Cn1ncc2c3ccccc3n(Cc3ccccc3)c2c1=O)N1CCN(c2ncccn2)CC1`: the “hERG current change (%, negative = inhibition) at 10uM” value is -7.41%.

Turning to `O=S(c1ccc2ccccc2c1)c1cnns1` (centres unmarked), the “hERG current change (%, negative = inhibition) at 10uM” value is on record as -7.2%.

As to `O=C(O)COc1ccccc1/C=N/NC(=O)CNC(=O)c1ccco1`, the “hERG current change (%, negative = inhibition) at 10uM” value is reported as 21%.

For `CCCNC(=O)NC(=O)COC(=O)CNS(=O)(=O)/C=C/c1ccccc1`, the “hERG current change (%, negative = inhibition) at 10uM” value came out at 17.3%.

As for `C=CCN1C(=Nc2ccccc2)SC/C1=C\C(=O)OC`, the “hERG current change (%, negative = inhibition) at 10uM” value is 0.245%.

For the compound `CCn1nc(C)c(Br)c1-c1nc(-c2cccc(C)c2)no1`, the “hERG current change (%, negative = inhibition) at 10uM” value came out at 19.1%.

Take `O=C(N/N=C/c1cc(Cl)cc([N+](=O)[O-])c1O)C1CC1`: the “hERG current change (%, negative = inhibition) at 10uM” value is 0.38%.

With `CCOC(=O)c1csc(CCNC(=O)c2oc3c(Cl)cc(C)cc3c2C)n1`, the “hERG current change (%, negative = inhibition) at 10uM” value came out at 10%.

As for `O=C(CCS(=O)(=O)c1cccc2nonc12)NCCc1ccccc1Cl`, the “hERG current change (%, negative = inhibition) at 10uM” value is -7.38%.

With `Cc1ccc(-c2nc(C(=O)NCC3CCCO3)cc3c2[nH]c2ccccc23)cc1` (centres unmarked), the “hERG current change (%, negative = inhibition) at 10uM” value stood at 1.66%.

In the case of `COc1ccc2c(c1)[N+](C)(C)C(C)(C)C=C2C.[I-]`, the “hERG current change (%, negative = inhibition) at 10uM” value turned out to be 19.7%.

Regarding `NC12CC3CC(C1)CC(CC(=O)O)(C3)C2`, the “hERG current change (%, negative = inhibition) at 10uM” value turned out to be 10.8%.

For `COc1ccc(C(=O)N/N=C/c2ccc(N(C)c3ccccc3)cc2)cc1`, the “hERG current change (%, negative = inhibition) at 10uM” value stood at 7.31%.

Turning to `COc1ccc(C2=NS(=O)(=O)N(C)C(C(=O)N3CCOCC3)=C2)cc1OC`, the “hERG current change (%, negative = inhibition) at 10uM” value is given as -2.16%.

`CCNCc1ccc(OCc2ccccc2F)c(OC)c1.Cl`: the “hERG current change (%, negative = inhibition) at 10uM” value is reported as -11%.

Turning to `CC(=O)N(CCc1cccc(C)c1)Cc1cc2cc(C)ccc2[nH]c1=O`, the “hERG current change (%, negative = inhibition) at 10uM” value is on record as -5.71%.

As for `CCCNC(=O)CN(C)CC(=O)Nc1ccccc1C#N`, the “hERG current change (%, negative = inhibition) at 10uM” value turned out to be 21.3%.

Take `CCN(CC)S(=O)(=O)c1cc(NS(=O)(=O)c2ccccc2)ccc1C`: the “hERG current change (%, negative = inhibition) at 10uM” value is reported as -3.17%.

Turning to `COCCNC(=O)Cn1cc(C(=O)c2ccco2)c2ccccc21`, the “hERG current change (%, negative = inhibition) at 10uM” value came out at 0.981%.

For `O=[N+]([O-])c1ccc(S(=O)(=O)Nc2nnc(C(F)(F)F)s2)cc1`, the “hERG current change (%, negative = inhibition) at 10uM” value was 3.45%.

As to `O=C1CC(NCCN2CCOCC2)C(=O)N1Cc1ccc(N2CCCC2=O)cc1` (centres unmarked), the “hERG current change (%, negative = inhibition) at 10uM” value came out at 17.7%.

As for `CC(=O)c1cc2c(cc1NC(=O)CN1CCCCCCC1)OCO2.O=C(O)C(=O)O`, the “hERG current change (%, negative = inhibition) at 10uM” value is 4.89%.

In the case of `CN1CCN(C2CCCCC2NS(=O)(=O)c2ccc(Cl)cc2)CC1` (centres unmarked), the “hERG current change (%, negative = inhibition) at 10uM” value is -29.8%.

For `CC(OC(=O)CCN=C1NS(=O)(=O)c2ccccc21)C(=O)NCc1ccccc1` (centres unmarked), the “hERG current change (%, negative = inhibition) at 10uM” value amounted to 8.04%.

On to `O=C(N/N=C(\c1ccccc1)c1ccccn1)c1ccccc1Cl`, for which the “hERG current change (%, negative = inhibition) at 10uM” value is -2.4%.

With `CC1CCc2nc(NC(=O)c3ccc(S(=O)(=O)N4CCCc5ccccc54)cc3)sc2C1` (centres unmarked), the “hERG current change (%, negative = inhibition) at 10uM” value was -6.64%.

Turning to `Cc1ccc(-n2ccc(=O)c(-c3ccnc(SCc4cccc(Cl)c4)n3)n2)cc1`, the “hERG current change (%, negative = inhibition) at 10uM” value worked out at 11.6%.

For the compound `Cc1csc2cc(-c3cccc([N+](=O)[O-])c3)c(-c3cccc([N+](=O)[O-])c3)c[n+]12.[Br-]`, the “hERG current change (%, negative = inhibition) at 10uM” value was 7.37%.

Regarding `O=C(c1ccc(CNS(=O)(=O)c2ccccc2)cc1)N1CCC2(CC1)OCCO2`, the “hERG current change (%, negative = inhibition) at 10uM” value is -4.16%.

On to `O=C(O)CCSc1nnc(COc2ccc([N+](=O)[O-])cc2)n1-c1ccccc1`, for which the “hERG current change (%, negative = inhibition) at 10uM” value is 22.8%.

For the compound `CN1CCN(C(=O)c2cc(Br)cn2C)CC1`, the “hERG current change (%, negative = inhibition) at 10uM” value was determined as 13%.

In the case of `O=C(CN1C(=O)CCC1=O)Nc1nc(-c2ccc(Cl)s2)cs1`, the “hERG current change (%, negative = inhibition) at 10uM” value is listed as -5.39%.

`COc1ccc(C2C(C(=O)N3CCOCC3)c3ccccc3C(=O)N2c2ccc(OC)cc2)cc1` (centres unmarked): the “hERG current change (%, negative = inhibition) at 10uM” value is listed as -12.8%.

Turning to `COc1ccc(S(=O)(=O)N2CCN(C(=O)c3c(C)nn(-c4ccccc4)c3C)CC2)cc1`, the “hERG current change (%, negative = inhibition) at 10uM” value was -35.3%.

Regarding `COc1ccc(-n2nnnc2SCc2nc3ccccc3s2)cc1`, the “hERG current change (%, negative = inhibition) at 10uM” value was -5.94%.
